Patent publication US7384907B2, “Method of treating infection with ABl tyrosine kinase inhibitors” (Duke University, priority 2002, dated 2008)

Assays:
[1] = test system: Crk and cortactin tyrosine phosphorylation; experiment: Immunoprecipitation and immunoblotting of Crk and cortactin tyrosine phosphorylation in Shigella-infected Hela cells; conditions: Hela cells pre-treated with STI571, infected with Shigella flexneri 2457T
[2] = test system: Shigella flexneri 2457T; experiment: Gentamicin protection assay, Shigella flexneri 2457T uptake into mouse embryo fibroblasts (Abl/Arg or Null); conditions: Null cells (lacking Abl and Arg), 10 μM
[3] = test system: Shigella flexneri 2457T; experiment: Gentamicin protection assay, Shigella flexneri 2457T uptake into Hela cells; conditions: 10 μM, p value=0.0018
[4] = test system: PLCγ; conditions: cited from earlier work
[5] = test system: Abl; conditions: following stimulation of the PDGF receptor; cited from earlier work

Row | Compound | Tyrosine phosphorylation of Crk (tyrosine 221) [1] | Effect on bacterial uptake [2] | Reduction in uptake of Shigella flexneri 2457T [3] [%] | Effect on signaling pathways induced during Shigella invasion [4] | Effect on catalytic activation of Abl [5]
1 | Cc1ccc(NC(=O)c2ccc(CN3CCN(C)CC3)cc2)cc1Nc1nccc(-c2cccnc2)n1 [STI571] | decrease | no significant effect | 47 |  | 
2 | COc1ccc2c(c1)CC[C@@H]1[C@@H]2CC[C@]2(C)[C@@H](NCCCCCCN3C(=O)C=CC3=O)CC[C@@H]12 [U73122] |  |  |  | blocks | blocks
